The source of these data is patent publication US20160074291A1, “ANTI-AGING SKIN CARE COMPOSITIONS AND REGIMENS” (The Procter & Gamble Company, priority 2014, published 2016).

The test system of assay [1] is eigengene for the "Cell Adhesion and Junction" theme. The following applies: cultured human keratinocytes; for effect on eigengene of "Cell Adhesion and Junction" theme: transcriptome profile, FIG. 4.
The test system of assay [2] is overall appearance associated genes. Description: Effect on overall appearance associated genes. The following applies: FIG. 5.

For the substance “palmitoyl-lysine-threonine-threonine-lysine-serine [Pal-KTTKS]”, in assay [1], the “eigengene expression associated with cell junction assembly and cell adhesion processes” value is listed as “significantly increase”; the “effect on eigengene of "Cell Adhesion and Junction" theme” value is listed as “significantly up-regulate”.

On to palmitoyl-lysine-threonine [Pal-KT], for which, in assay [2], the “anti-aging benefit on the overall appearance associated genes” value is recorded as “strong anti-aging benefit”. Besides, the “effect on eigengene of "Cell Adhesion and Junction" theme” value in assay [1] is recorded as “significantly up-regulate”.
